# Toxic doses and inconclusive results are not listed. Certain results were filed several times, with different values. The list is limited to them. The source may hold further records. Results that share an entry differ, and nothing given here explains why; they may come from other doses, times, organisms or constructs than stated.
# Tested on: L1210 leukemia ip in BDF1 mice, survival T/C
# Assay: NCI In Vivo Anticancer Drug Screen. Data for tumor model L1210 Leukemia (intraperitoneal) in B6D2F1 (BDF1) mice
# Conditions: endpoint: mean survival time; dose: 200.0 mg/kg/injection; schedule: Q01DX009 (ip); vehicle: other; higher = longer survival
structure (smiles),measurement,value
S=c1cccn[nH]1,T/C,"93 % of control, 100 % of control, 406 % of control"

# — PubChem BioAssay AID248 (DTP/NCI, 2004)
